Measurements as given in PubChem BioAssay (NCATS).
Inconclusive results, whose numbers are uncertain, are shown with a selection of clear calls. A potency beside an inconclusive call is a rough fit, not a confirmed value. Calls of active or inactive are those of the source. Calls come from the whole dose curve; as a rule, active = well fitted curve in the direction sought with a large enough effect; inconclusive = small, poorly fitted or top-dose-only effect, or another doubt; inactive = no such curve, though single readings can be large; an effect the other way counts as inactive or inconclusive.

Assay: Confirmatory screen GU Rhodamine qHTS for Zika virus inhibitors qHTS (AID 1347157); note: nearly all actives have a fitted effect of over 70% in size
Details: purified enzyme assay, Rhodamine110 substrate fluorescence, 15 min; series mostly up to 114 µM
In short: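 Noncovalent NS2B hydrophilic domain/NS3 protease complex (25 nM final) in 10 mM Tris-HCl pH 8.0, 0.01% Tween 20, preincubated 15 min with compounds (up to 114 microM), then 1.5 microM Rhodamine110 substrate. Fluorescence change over 15 min fitted to 4-parameter Hill.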
Potency is the fitted concentration of half-maximal effect; tags give direction and shape of the fitted curve.

Structure (SMILES) | Potency
O=C(O)c1cc(Oc2ccc(C(F)(F)F)cc2Cl)ccc1[N+](=O)[O-] | inconclusive: 89.1 µM [inhibitor, single point]
CNc1ccc2oc(C[C@H]3O[C@@]4(CC[C@H]3C)O[C@H](C(C)C(=O)c3ccc[nH]3)[C@H](C)C[C@H]4C)nc2c1C(=O)O (stereo partly drawn) | active: 13.9 µM
Cc1nnc2n1-c1sc(CCc3ccc(CC(C)C)cc3)cc1C(c1ccccc1Cl)=NC2C (stereo not drawn) | active: 44.1 µM
CCN1CC2(COC)C3[C@@H](OC)C4C1C3(C1C[C@]3(O)[C@H](OC(=O)c5ccccc5)C1[C@]4(OC(C)=O)[C@@H](O)[C@@H]3OC)[C@H](OC)C[C@H]2O (stereo partly drawn) | inactive
Oc1cc(Cl)c(Cl)cc1Cl | inactive
O=C1C(I)=CC(=C(c2cc(I)c(O)c(I)c2)c2ccccc2C(=O)O)C=C1I | inconclusive: 2.82 µM [inhibitor, full curve, poor fit]
CC(C)(O)[C@H]1O[C@H]2CC[C@@]3(C)[C@@](O)(CC[C@H]4Cc5c([nH]c6ccccc56)[C@@]43C)C2=CC1=O | inconclusive: 21.5 µM [inhibitor, partial curve]

Assay: ZIKV-mCherry secondary qHTS for Zika virus inhibitors (AID 1347158)
Details: Vero cells, ZIKV-mCherry infection imaging, 48-72 h; series mostly up to 49.2 µM
In short: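 Read-out is percent infection: mCherry-positive Vero cells (nuclear-proximal intensity >450 RFU, 3 SD above negative controls) counted by high-content imaging of Hoechst-stained, PFA-fixed wells after 48-72 h with ZIKV-mCherry at MOI 1 and compound.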

Structure (SMILES) | Potency
CN(C)[C@@H]1C(=O)C(C(N)=O)=C(O)[C@@]2(O)C(=O)C3=C(O)c4c(O)cccc4[C@@](C)(O)[C@H]3C[C@@H]12 | inconclusive: 31.6 µM [inhibitor, single point]
O=c1oc2ccccc2c(O)c1C(CC(O)c1ccc(-c2ccc(Br)cc2)cc1)c1ccccc1 (stereo not drawn) | inconclusive: 10 µM [inhibitor, full curve]
O=c1c(C2CC(c3ccc(-c4ccc(Br)cc4)cc3)Cc3ccccc32)c(O)sc2ccccc12 (stereo not drawn) | inconclusive: 5.01 µM [inhibitor, full curve, poor fit]
O=C1OC(c2ccc(O)c(S(=O)(=O)O)c2)(c2ccc(O)c(S(=O)(=O)O)c2)c2c(Br)c(Br)c(Br)c(Br)c21 | inconclusive: 28.2 µM [inhibitor, partial curve, poor fit]
O=C(Nc1ccc(Br)cc1)c1cc(Br)cc(Br)c1O | active: 8.91 µM
O=C1C(I)=CC(=C(c2cc(I)c(O)c(I)c2)c2ccccc2C(=O)O)C=C1I | inactive
